The whole screen tested about 350,000 compounds, of which about 9,900 (2.8%) were called active. This list was built around the results that the source calls inconclusive (neither active nor inactive); the mix of calls is not that of the screen. The call rests on the fitted dose curve; in most records, active means well fitted activation curve with a large enough effect; inconclusive means small, poorly fitted or top-dose-only effect; inactive means no such curve, though single readings can be large or run the other way. No potency is given beside an inconclusive call; the fits are too rough.
Experiment: A quantitative high throughput screen for small molecules that induce DNA re-replication in MCF 10a normal breast cells. Further: nearly all actives have a fitted effect of over 50% in size. On activity, positive = re-replication: % of control where 0% means no effect.
Conditions: MCF 10A DNA re-replication, Hoechst nuclear intensity, 48 h; activity, positive = re-replication: at 46.1 µM (top of the series)
Potency means the concentration at half of the fitted maximal effect; tags describe the fitted curve by direction and shape.

Row | SMILES | Potency | activity, positive = re-replication
1 | COC(=O)CSc1nsc(SCC(=O)OC)c1C#N | inconclusive [activator, single point] | 
2 | Cc1ccccc1C(=O)N1CCN(c2ccc(NC(=O)c3cccs3)cc2)CC1 | inconclusive [activator, partial curve, poor fit] | 
3 | O=C(c1ccncc1)N(c1ccc2oc3c(c2c1)CCCC3)S(=O)(=O)c1cccc([N+](=O)[O-])c1 | inconclusive [activator, single point] | 
4 | CC(=O)c1nnn(-c2cccc([N+](=O)[O-])c2)c1C |  | inactive: 17.7%
5 | CC1CCCCC12NC(=O)N(CC(=O)NNC(=O)c1ccc(Br)cc1)C2=O (stereo unspecified) |  | inactive: -3.84%
6 | CCN(CC)C(=S)SCC(=O)Nc1ccc(S(N)(=O)=O)cc1 | inconclusive [activator, single point] | 
7 | Cn1cnc([N+](=O)[O-])c1Oc1ccccc1 | inconclusive [activator, single point] | 
8 | COc1ccc(-n2cnc3cc([N+](=O)[O-])ccc32)cc1 |  | inactive: 0.88%
9 | O=C(Nc1ccccc1)N1CCN(Cc2ccc3c(c2)OCO3)CC1 | inconclusive [activator, single point] | 
10 | CCc1cc2cc(C)ccc2nc1SCC(=O)N1CC(=O)Nc2ccccc21 | inconclusive [activator, single point] | 
11 | CC(=O)c1sc(NC(=O)c2cc(-c3ccccc3)nn2-c2ccccc2)nc1C | inconclusive [activator, full curve] | 
12 | COc1ccc2[nH]cc(C(=O)CCl)c2c1 | active: 20.6 µM | 
13 | Cc1cc(NC(=O)CSc2nc(C(C)(C)C)nc3ccccc23)no1 | inconclusive [activator, full curve, poor fit] | 
14 | Cc1ccc(N(CCCCN2C(=O)c3ccccc3C2=O)C(=O)c2cccs2)cc1 | inconclusive [activator, single point] | 
15 | Cc1sc(NC(=O)c2ccco2)c(C(c2cccnc2)N2CCCC2)c1C (stereo unspecified) | active: 20.6 µM | 
16 | COc1ccc(CCNC(=O)COc2cc(=O)n(C)c3ccccc23)cc1OC | inconclusive [activator, single point] | 
17 | C=CCOc1ccc(C(=O)Nc2ccccc2C(=O)NCc2cccnc2)cc1 | inconclusive [activator, single point] | 
18 | O=C(CSc1nnc(NC(=O)c2ccc(F)cc2)s1)NCc1ccco1 | inconclusive [activator, full curve] | 
19 | Cn1c(=O)c2c(nc(NCc3ccc4c(c3)OCO4)n2Cc2ccccc2)n(C)c1=O | inconclusive [activator, single point] | 
20 | O=C(NNC(=O)c1ccc(O)c(Cl)c1)c1cccc(S(=O)(=O)N2CCOCC2)c1 | inconclusive [activator, partial curve, poor fit] | 
21 | Cc1cc(C)c(S(=O)(=O)c2ccccc2)c(OC(=O)c2cc(F)c(F)cc2Cl)n1 | inconclusive [activator, single point] | 

Row | SMILES | Potency | activity, positive = re-replication
22 | COc1cc(/C=N/NC(=O)CN(Cc2ccccc2)S(=O)(=O)c2ccc3c(c2)OCCO3)ccc1O | inconclusive [activator, single point] | 
23 | O=C(COC(=O)c1ccccc1O)NCCc1c[nH]c2ccccc12 | inconclusive [activator, full curve, poor fit] | 
24 | Cc1ccc(C(=O)CSC2=C(C#N)C(c3ccco3)C3=C(CCCC3=O)N2)cc1 (stereo unspecified) | active: 8.2 µM | 
25 | O=C(NC(c1ccc(Cl)cc1)c1c(O)ccc2ccccc12)c1ccccc1 (stereo unspecified) | inconclusive [activator, partial curve] | 
26 | Cc1ccc(S(=O)(=O)N2CCC(C(=O)Nc3ccccc3N3CCCC3)CC2)c(C)c1 | inconclusive [activator, single point] | 
27 | CN1CC(c2ccccc2)C2(COc3ccccc3C2=O)C12C(=O)Nc1ccccc12 (stereo unspecified) | inconclusive [activator, partial curve, poor fit] | 
28 | CCOC(=O)c1ccccc1NC(=O)CSc1ccc(-c2ccccn2)nn1 | inconclusive [activator, single point] | 
29 | Cc1c(C(=O)OC2CCCC2)[nH]c2c1C(=O)CC(c1ccco1)C2 (stereo unspecified) | inconclusive [activator, full curve, poor fit] | 
30 | CSc1ccc2c(c1)C(N1CCN(C)CC1)Cc1ccccc1S2 (stereo unspecified) | active: 26.6 µM | 
31 | Cc1ccc(Nc2cc(C)nc3ccc(C)cc23)cc1 | inconclusive [activator, single point] | 
32 | Cc1ccc(S(=O)(=O)N2[C@@H](c3ccc(C(C)(C)C)cc3)C(C(=O)O)=CC[C@H]2c2cccc(Cl)c2)cc1 | inconclusive [activator, single point] | 
33 | S=c1[nH]nc(-c2cc(-c3ccccc3)n[nH]2)n1/N=C/c1c(Cl)cccc1Cl | inconclusive [activator, single point] | 
34 | COc1ccc(/C=N/NC(=O)c2ccccc2OCc2ccccc2)c(OC)c1 | inconclusive [activator, single point] | 
35 | Cc1ccc(NC(=O)CN(c2ccccc2)S(=O)(=O)N(C)C)cc1 |  | inactive: 3.47%
36 | O=C(Nc1ccc(OC(F)F)c(Cl)c1)Nc1ccc2c(c1)OCO2 | inconclusive [activator, single point] | 
37 | CCCCN1C(=O)/C(=C/C=C2/CC(C)(C)CN2C)SC1=S | inconclusive [activator, full curve] | 
38 | Fc1ccc(-c2ccnc3nc(N4CCOCC4)nn23)cc1 |  | inactive: -1.29%
39 | O=C(CSc1nnc(CNC(=O)c2cccs2)o1)Nc1ccc2c(c1)OCO2 | inconclusive [activator, full curve, poor fit] | 
40 | O=C1C2CC=CCC2C(=O)N1c1ccc(NCCc2cccc(F)c2)c([N+](=O)[O-])c1 (stereo unspecified) | inconclusive [activator, full curve] | 
41 | COc1ccccc1-c1nnc(NC(=O)c2ccc(S(=O)(=O)N(C)CC3CCCO3)cc2)o1 (stereo unspecified) | inconclusive [activator, single point] | 

— PubChem BioAssay AID624296 (National Center for Advancing Translational Sciences (NCATS), 2012)
